Data on 40 compounds can be found in the supplement of paper PMC9446081.

Among all 39,000 compounds or so, about 220 (0.56%) showed activity. This is one part of the list.
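Further: static incubation at 37 °C against the wild-type strain, values averaged over two biological replicates.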

The experiment concerns Escherichia coli K-12 BW25113. Description: relative growth (OD600 normalised to plate interquartile mean) (fraction); higher = less growth inhibition, active = 0.2 or less. The note with it: 50 µM; LB; incubation time: overnight (16-24 h).
With `C[C@@H]1CN([C@H](C)CO)C(=O)c2cc(NC(=O)Nc3ccc(F)cc3)ccc2O[C@@H](C)CCCCO[C@H]1CN(C)C(=O)Nc1ccc(F)cc1`, the relative growth was inactive: 1.05.
In the case of `COc1ccc(CCNC(=O)[C@@]2(Sc3ccc(C)cc3)CC(=O)N(Cc3cc(C(F)(F)F)cc(C(F)(F)F)c3)[C@@H]2c2ccc(CO)cc2)cc1` it was inactive: 1.02; in that of `C[C@@H]1CCCCO[C@@H](CN(C)C(=O)c2ccccc2)[C@H](C)CN([C@H](C)CO)C(=O)c2cc(NC(=O)CCC(F)(F)F)ccc2O1`, inactive: 0.992; in that of `CC(=O)Nc1ccc(S(=O)(=O)c2ccc(NC(C)=O)cc2)cc1`, inactive: 1.13.
In the case of `C[C@@H]1CCCCO[C@@H](CN(C)C(=O)Nc2ccc3c(c2)OCO3)[C@@H](C)CN([C@H](C)CO)C(=O)c2cc(NC(=O)Nc3cccc4ccccc34)ccc2O1` it was inactive: 1.05; in that of `O=C([O-])CCNC(=O)c1ccc(N=Nc2ccc(O)c(C(=O)[O-])c2)cc1.[Na+].[Na+]`, inactive: 0.999; in that of `Cc1cc(C(=O)Nc2cccc3c2O[C@H](CN(C)C(=O)NC(C)C)[C@H](C)CN([C@H](C)CO)C3=O)n(C)n1`, inactive: 1.02.
Turning to `CC(C)=CCCC(C)=CCC1=C(C)C(=O)c2ccccc2C1=O`, the relative growth was inactive: 0.96.
In the case of `COc1cccc(S(=O)(=O)Nc2ccc3c(c2)[C@@H]2C[C@H](CC(=O)NCC(F)(F)F)O[C@H](CO)[C@@H]2O3)c1` it was inactive: 1.01.
`C[C@H](CO)N1C[C@H](C)[C@H](CN(C)Cc2ccncc2)Oc2ccc(NS(=O)(=O)c3ccc(F)cc3)cc2C1=O`: the relative growth is inactive: 0.996.
For the compound `O=C(C[C@@H]1CC[C@H]2[C@@H](COC[C@@H](O)CN2C(=O)c2ccncc2)O1)NC1CCC1`, the relative growth is inactive: 0.999.
As to `C[C@@H]1CCCCO[C@H](CN(C)C(=O)C2CCCCC2)[C@@H](C)CN([C@H](C)CO)C(=O)c2cc(NS(=O)(=O)c3ccc(F)cc3)ccc2O1`, the relative growth was inactive: 1.03.
As for `Cc1ccc(S(=O)(=O)N(C)C[C@@H]2Oc3ccc(NC(=O)C4CC4)cc3CC(=O)N([C@H](C)CO)C[C@@H]2C)cc1`, the relative growth was inactive: 0.956.
Consider `Cc1noc(C)c1NC(=O)N(C)C[C@H]1Oc2ccc(NC(=O)Nc3ccc(C(F)(F)F)cc3)cc2C(=O)N([C@H](C)CO)C[C@@H]1C`, for which the relative growth was inactive: 0.993.
Turning to `C[C@H]1CN([C@@H](C)CO)C(=O)c2cccc(NC(=O)c3ccc(-c4nccs4)cc3)c2O[C@@H]1CN(C)C(=O)NC1CCCCC1`, the relative growth is inactive: 0.967.
In the case of `C[C@H]1CN([C@@H](C)CO)C(=O)CCCn2nncc2CO[C@@H]1CN(C)C(=O)Nc1ccc2c(c1)OCO2`, the relative growth was inactive: 1.
With `CO[C@@H]1CN(C)C(=O)c2ccc(NC(=O)C3CCOCC3)cc2OC[C@@H](C)N(Cc2cccnc2)C[C@@H]1C`, the relative growth is inactive: 0.98.
Take `C[C@@H]1CCCCO[C@H](CN(C)C(=O)Nc2ccccc2)[C@@H](C)CN([C@@H](C)CO)C(=O)c2cc(NS(=O)(=O)c3ccc(F)cc3)ccc2O1`: the relative growth was inactive: 1.04.
`C[C@@H]1CN([C@@H](C)CO)S(=O)(=O)c2ccc(C#Cc3ccncc3)cc2O[C@@H]1CN(C)C(=O)C1CCC1`: the relative growth was inactive: 0.988.
`O=C(C[C@@H]1CC[C@@H]2[C@H](COC[C@H](O)CN2C(=O)c2cnccn2)O1)NCc1ccc(Oc2ccccc2)cc1`: the relative growth is inactive: 0.985.
Consider `CO[C@H](CN(C)C(=O)c1ccc2c(c1)OCO2)[C@H](C)CN([C@@H](C)CO)S(=O)(=O)c1ccc(F)cc1`, for which the relative growth is inactive: 0.991.
Consider `CC(C)NC(=O)N(C)C[C@H]1Oc2ccc(NS(=O)(=O)c3ccc(F)cc3)cc2C(=O)N([C@@H](C)CO)C[C@H]1C`, for which the relative growth is inactive: 0.982.
`C[C@@H]1CN([C@@H](C)CO)C(=O)c2cc(NS(=O)(=O)c3cccs3)ccc2O[C@@H]1CN(C)S(C)(=O)=O`: the relative growth is inactive: 0.993.
In the case of `O=C(C[C@H]1C=C[C@H](NS(=O)(=O)c2ccc(F)cc2)[C@H](CO)O1)N1CCC(Cc2ccccc2)CC1` it was inactive: 1; in that of `O=C(NC1CCCCC1)N1c2ccccc2C=Cc2ccccc21`, inactive: 0.989; in that of `COc1ccc2c3c([nH]c2c1)[C@H](CO)N(C[C@]13CCN(CC1)Cc1ccc(cc1)F)C(=O)Nc1ccc(cc1)F`, inactive: 0.983.
For the compound `COc1ccc(NC(=O)Nc2ccc3c(c2)C(=O)N([C@H](C)CO)C[C@H](C)[C@H](CN(C)C(=O)NC(C)C)OCCCC[C@@H](C)O3)cc1`, the relative growth was inactive: 1.
The result for `CCOc1ccc2c(c1)-c1c(ssc1=S)C(C)(C)N2C` reads inactive: 0.993; that for `C[C@H](CO)N1C[C@H](C)[C@H](CN(C)Cc2cccc3c2OCCCO3)OCc2cn(nn2)CCCC1=O`, inactive: 0.965; that for `Cc1cc(C(=O)Nc2cccc3c2O[C@H](CN(C)S(=O)(=O)c2cccs2)[C@@H](C)CN([C@H](C)CO)C3=O)n(C)n1`, inactive: 0.993.
Turning to `Nc1ncnc(Cl)c1N`, the relative growth is inactive: 0.988.
For `NC(=O)NN=Cc1ccc([N+](=O)[O-])o1`, the relative growth is active: 0.0474.
In the case of `NC(=O)NCC#Cc1ccc2c(c1)[C@]1(C(=O)N2)[C@H](C(=O)N2CCN(c3ncccn3)CC2)[C@H]2C(=O)O[C@H](c3ccccc3)[C@H](c3ccccc3)N2[C@@H]1c1ccc(OCCO)cc1` it was inactive: 1.01; in that of `Cc1noc(C)c1S(=O)(=O)Nc1ccc2c(c1)C(=O)N([C@@H](C)CO)C[C@H](C)[C@@H](CN(C)C(=O)Nc1ccc3c(c1)OCO3)O2`, inactive: 1.01.
In the case of `CCCNC(=O)N1C[C@@H](C)[C@H](OC)CN(C)C(=O)c2ccc(NS(=O)(=O)CC(F)(F)F)cc2OC[C@H]1C`, the relative growth is inactive: 1.
Regarding `O=C(c1ccccc1)c1ccccc1`, the relative growth was inactive: 1.01.
Consider `COc1ccc(C(N)=O)cc1`, for which the relative growth was inactive: 0.985.
As for `COc1ccc(NC(=O)Nc2ccc3c(c2)CC(=O)N([C@H](C)CO)C[C@@H](C)[C@H](CN(C)S(C)(=O)=O)O3)cc1`, the relative growth was inactive: 1.01.
The result for `COc1ccc(S(=O)(=O)N(C)C[C@@H]2Oc3c(NS(=O)(=O)c4cn(C)cn4)cccc3C(=O)N([C@@H](C)CO)C[C@H]2C)cc1` reads inactive: 0.983; that for `COc1ccc2c3c(n(c2c1)C)[C@H](CO)N(C[C@]13CCN(CC1)CC1CCOCC1)C(=O)Cc1ccccn1`, inactive: 1.03.
